Experimental data as given in the supplement of paper PMC12217912.
The list shows a part of the results. The full chains were built here from the parent and the listed change. Values near 0.05 are background.

B1: TEV protease; numbered along this chain (parent)
chain: MGESLFKGPRDYNPISSSICHLTNESDGHTTSLYGIGFGPFIITNKHLFRRNNGTLVVQSLHGVFKVKDTTTLQQHLVDGRDMIIIRMPKDFPPFPQKLKFREPQREERICLVTTNFQTKSMSSMVSDTSCTFPSGDGIFWKHWIQTKDGQCGSPLVSTRDGFIVGIHSASNFTNTNNYFTSVPKNFMELLTNQEAQQWVSGWRLNADSVLWGGHKVFMVKPEEPFQPVKEATQL

Variants of: B1
Assay: raw area under fraction-flipped curve 0-4 h after induction (AUC4h, not background-subtracted), DNA-recorder readout of cleavage of the substrate (dimensionless); higher = more cleavage of the substrate by the protease variant
Settings: temperature: 34 °C; time window: 0-4 h after rhamnose induction
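Note: Bxb1 expression induced with 0.2% (w/v) L-rhamnose at OD600 near 0.5, cultures sampled hourly, flipped fraction per protease–substrate barcode pair counted by paired-end Illumina sequencing.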

Variant | area with substrate HNLYFQS | area with substrate INLYFQS | area with substrate RNLYFQS | area with substrate KNLYFQS | area with substrate LNLYFQS | area with substrate MNLYFQS | area with substrate PNLYFQS | area with substrate SNLYFQS | area with substrate TNLYFQS | area with substrate VNLYFQS
MGESLFKGPRDYNPISSSICHLTNESDGHTTSLYGIGFGPFIITNKHLFRRNNGTLVVQSLHGVFKVKDTTTLQQHLVDGRDMIIIRMPKDFPPFPQKLKFREPQREERACLVTTNFQTKSMSSMVSDTSCTFPSGDGIFWKHWIQTKDGQCGSPLVSTRDGFIVGIHSASNFTNTNNYFTSVPKNFMELLTNQEAQQWVSGWRLNADSVLWGGHKVFMVKPEEPFQPVKEATQL [I110A] | 0.0638 | 0.0646 | 0.0559 |  |  |  |  |  |  | 
MGESLFKGPRDYNPISSSICHLTNESDGHTTSLYGIGFGPFIITNKHLFRRNNGTLVVQSLHGVFKVKDTTTLQQHLVDGRDMIIIRMPKDFPPFPQKLKFREPQREERICLVTTNFQTKSMSSMVSDTSCTFPSGDGIFWKEWIQTKDGQCGSPLVSTRDGFIVGIHSASNFTNTNNYFTSVPKNFMELLTNQEAQQWVSGWRLNADSVLWGGHKVFMVKPEEPFQPVKEATQL [H143E] | 0.0484 |  | 0.0461 | 0.0567 | 0.0409 | 0.0575 | 0.0606 | 0.041 | 0.041 | 0.0493
MGESLFKGPRDYNPISSSICHLTNESDGHTTSLYGIGFGPFIITNKHLFRRNNGTLVVQSLHGVFKVKDTTTLQQHLVDGRDMIIIRMPKDFPPFPQKLKFREPQRDERICLVTTNFQTKSMSSMVSDTSCTFPSGDGIFWKHWIQTKDGQCGSPLVSTRDGFIVGIHSASNFTNTNNYFTSVPKNFMELLTNQEAQQWVSGWRLNADSVLWGGHKVFMVKPEEPFQPVKEATQL [E107D] | 0.0647 | 0.0438 |  |  | 0.0612 |  | 0.0401 |  | 0.0724 | 0.0622
MGESLFKGPRDYNPISSSICHLTNESDGHTTSLYGIGFGPFIITNKHLFRRNNGTLVVQSLHGVFKVKDTTTLQQHLVDGRDMIIIRMPKDFPPFPQKLKFREPQREERICLVTTNFQTKSMSSMVSDTSCTFPSGDGIFWKHWIQTKDGQCGSPLVSTRDGFIVGIHHASNFTNTNNYFTSVPKNFMELLTNQEAQQWVSGWRLNADSVLWGGHKVFMVKPEEPFQPVKEATQL [S169H] | 0.0555 |  | 0.105 |  |  | 0.0577 |  | 0.0456 | 0.0547 | 0.0582
MGESLFKGPRDYNPISSSICHLTNESDGHTTSLYGIGFGPFIITNKHLFRRNNGTLVVQSLHGVFKVKDTTTLQQHLVDGRDMIIIRMPKDWPPFPQKLKFREPQREERICLVTTNFQTKSMSSMVSDTSCTFPSGDGIFWKHWIQTKDGQCGSPLVSTRDGFIVGIHSASNFTNTNNYFTSVPKNFMELLTNQEAQQWVSGWRLNADSVLWGGHKVFMVKPEEPFQPVKEATQL [F92W] | 0.0621 | 0.106 |  | 0.0633 |  |  | 0.066 |  |  | 0.0701
MGESLFKGPRDYNPISSSICHLTNESDGHTTSLYGIGFGPFIITNKHLFRRNNGTLVVQSLHGVFKVKDTTTLQQHLVDGRDMIIIRMPKDFPPFPQKLKFREPQREERICLVTTNFQTKSMSSMVSDTSCTFPSGDGIFWKHWIQTKDGQCGSPLVSTRDGFIVGIHSASNFTNTNNPFTSVPKNFMELLTNQEAQQWVSGWRLNADSVLWGGHKVFMVKPEEPFQPVKEATQL [Y179P] | 0.0597 |  |  | 0.0497 | 0.0459 |  |  | 0.0623 | 0.0519 | 
MGESLFKGPRDYNPISSSICHLTNESDGHTTSLYGIGFGPFIITNKHLFRRNNGTLVVQSLHGVFKVKDTTTLQQHLVDGRDMIIIRMPKDFPPFPQKLKFREPQREERICLVTTNIQTKSMSSMVSDTSCTFPSGDGIFWKHWIQTKDGQCGSPLVSTRDGFIVGIHSASNFTNTNNYFTSVPKNFMELLTNQEAQQWVSGWRLNADSVLWGGHKVFMVKPEEPFQPVKEATQL [F117I] | 0.0709 |  |  |  |  | 0.0489 |  |  | 0.058 | 
MGESLFKGPRDYNPISSSICHLTNESDGHTTSLYGIGFGPFIITNKHLFRRNNGTLVVQSLHGVFKVKDTTTLQQHLVDGRDMIIIRMPKDFPPFPQKLKFREPQREERICLVTTNFQTKSMSSMVSDTSCTFPSGDGIFKKHWIQTKDGQCGSPLVSTRDGFIVGIHSASNFTNTNNYFTSVPKNFMELLTNQEAQQWVSGWRLNADSVLWGGHKVFMVKPEEPFQPVKEATQL [W141K] | 0.0508 |  |  | 0.0555 |  |  | 0.0573 |  |  | 0.0427
MGESLFKGPRDYNPISSSICHLTNESDGHTTSLYGIGFGPFIITNKHLFRRNNGTLVVQSLHGVFKVKDTTTLQQHLVDGRDMIIILMPKDFPPFPQKLKFREPQREERICLVTTNFQTKSMSSMVSDTSCTFPSGDGIFWKHWIQTKDGQCGSPLVSTRDGFIVGIHSASNFTNTNNYFTSVPKNFMELLTNQEAQQWVSGWRLNADSVLWGGHKVFMVKPEEPFQPVKEATQL [R87L] | 0.0693 |  |  |  | 0.0621 |  |  | 0.0505 | 0.0603 | 0.0892
MGESLFKGPRDYNPISSSICHLTNESDGHTTSLYGIGFGPFIITNKHLFRRNNGTLVVQSLHGVFKVKDTTTLQQHLVDGRDMIIIRMPKDFPPFPQKLKFREPQREERICLVTTNFQTKSMSSMVSDTSCTFPSGDIIFWKHWIQTKDGQCGSPLVSTRDGFIVGIHSASNFTNTNNYFTSVPKNFMELLTNQEAQQWVSGWRLNADSVLWGGHKVFMVKPEEPFQPVKEATQL [G138I] | 0.0624 |  |  | 0.0487 |  |  |  |  | 0.0483 | 
MGESLFKGPRDYNPISSSICHLTNESDGHTTSLYGIGFGPFIITNKHLFRRNNGTLVVQSLHGVFKVKDTTTLQQHLVDGRDMIIIRMPKDFPPFPQKLKFREPQREERICLVTTNFQTKSMSSMVSDTSCTFPSGDGIFWKHWIQTKDGQCGSPLTSTRDGFIVGIHSASNFTNTNNYFTSVPKNFMELLTNQEAQQWVSGWRLNADSVLWGGHKVFMVKPEEPFQPVKEATQL [V157T] | 0.0643 |  |  |  |  |  |  |  | 0.0978 | 
MGESLFKGPRDYNPISSSICHLTNESDGHTTSLYGIGFGPFIITNKHLFRRNNGTLVVQSLHGVFKVKDTTTLQQHLVDGRDMIIIRMPKDFPPFPQKLKFREPQREERICLVTTNFQKKSMSSMVSDTSCTFPSGDGIFWKHWIQTKDGQCGSPLVSTRDGFIVGIHSASNFTNTNNYFTSVPKNFMELLTNQEAQQWVSGWRLNADSVLWGGHKVFMVKPEEPFQPVKEATQL [T119K] | 0.0565 |  |  |  | 0.0855 |  |  | 0.056 | 0.0711 | 

Same assay, conditions: temperature: 34 °C; time window: 0-4 h after rhamnose induction

Variant | area with substrate WNLYFQS | area with substrate YNLYFQS | area with substrate NNLYFQS
MGESLFKGPRDYNPISSSICHLTNESDGHTTSLYGIGFGPFIITNKHLFRRNNGTLVVQSLHGVFKVKDTTTLQQHLVDGRDMIIIRMPKDFPPFPQKLKFREPQREERICLVTTNFQTKSMSSMVSDTSCTFPSGDGIFWKEWIQTKDGQCGSPLVSTRDGFIVGIHSASNFTNTNNYFTSVPKNFMELLTNQEAQQWVSGWRLNADSVLWGGHKVFMVKPEEPFQPVKEATQL [H143E] | 0.0518 | 0.0292 | 
MGESLFKGPRDYNPISSSICHLTNESDGHTTSLYGIGFGPFIITNKHLFRRNNGTLVVQSLHGVFKVKDTTTLQQHLVDGRDMIIIRMPKDFPPFPQKLKFREPQRDERICLVTTNFQTKSMSSMVSDTSCTFPSGDGIFWKHWIQTKDGQCGSPLVSTRDGFIVGIHSASNFTNTNNYFTSVPKNFMELLTNQEAQQWVSGWRLNADSVLWGGHKVFMVKPEEPFQPVKEATQL [E107D] | 0.0612 |  | 
MGESLFKGPRDYNPISSSICHLTNESDGHTTSLYGIGFGPFIITNKHLFRRNNGTLVVQSLHGVFKVKDTTTLQQHLVDGRDMIIIRMPKDFPPFPQKLKFREPQREERICLVTTNFQTKSMSSMVSDTSCTFPSGDGIFWKHWIQTKDGQCGSPLVSTRDGFIVGIHHASNFTNTNNYFTSVPKNFMELLTNQEAQQWVSGWRLNADSVLWGGHKVFMVKPEEPFQPVKEATQL [S169H] | 0.0573 |  | 0.0657
MGESLFKGPRDYNPISSSICHLTNESDGHTTSLYGIGFGPFIITNKHLFRRNNGTLVVQSLHGVFKVKDTTTLQQHLVDGRDMIIIRMPKDFPPFPQKLKFREPQREERICLVTTNFQTKSMSSMVSDTSCTFPSGDGIFWKHWIQTKDGQCGSPLVSTRDGFIVGIHSASNFTNTNNPFTSVPKNFMELLTNQEAQQWVSGWRLNADSVLWGGHKVFMVKPEEPFQPVKEATQL [Y179P] | 0.0469 | 0.0524 | 0.0549
MGESLFKGPRDYNPISSSICHLTNESDGHTTSLYGIGFGPFIITNKHLFRRNNGTLVVQSLHGVFKVKDTTTLQQHLVDGRDMIIIRMPKDFPPFPQKLKFREPQREERICLVTTNIQTKSMSSMVSDTSCTFPSGDGIFWKHWIQTKDGQCGSPLVSTRDGFIVGIHSASNFTNTNNYFTSVPKNFMELLTNQEAQQWVSGWRLNADSVLWGGHKVFMVKPEEPFQPVKEATQL [F117I] | 0.0596 |  | 
MGESLFKGPRDYNPISSSICHLTNESDGHTTSLYGIGFGPFIITNKHLFRRNNGTLVVQSLHGVFKVKDTTTLQQHLVDGRDMIIIRMPKDFPPFPQKLKFREPQREERICLVTTNFQTKSMSSMVSDTSCTFPSGDGIFKKHWIQTKDGQCGSPLVSTRDGFIVGIHSASNFTNTNNYFTSVPKNFMELLTNQEAQQWVSGWRLNADSVLWGGHKVFMVKPEEPFQPVKEATQL [W141K] | 0.0498 | 0.0545 | 0.0265
MGESLFKGPRDYNPISSSICHLTNESDGHTTSLYGIGFGPFIITNKHLFRRNNGTLVVQSLHGVFKVKDTTTLQQHLVDGRDMIIILMPKDFPPFPQKLKFREPQREERICLVTTNFQTKSMSSMVSDTSCTFPSGDGIFWKHWIQTKDGQCGSPLVSTRDGFIVGIHSASNFTNTNNYFTSVPKNFMELLTNQEAQQWVSGWRLNADSVLWGGHKVFMVKPEEPFQPVKEATQL [R87L] | 0.0556 | 0.057 | 
MGESLFKGPRDYNPISSSICHLTNESDGHTTSLYGIGFGPFIITNKHLFRRNNGTLVVQSLHGVFKVKDTTTLQQHLVDGRDMIIIRMPKDFPPFPQKLKFREPQREERICLVTTNFQTKSMSSMVSDTSCTFPSGDIIFWKHWIQTKDGQCGSPLVSTRDGFIVGIHSASNFTNTNNYFTSVPKNFMELLTNQEAQQWVSGWRLNADSVLWGGHKVFMVKPEEPFQPVKEATQL [G138I] | 0.0549 |  | 0.0359
MGESLFKGPRDYNPISSSICHLTNESDGHTTSLYGIGFGPFIITNKHLFRRNNGTLVVQSLHGVFKVKDTTTLQQHLVDGRDMIIIRMPKDFPPFPQKLKFREPQREERICLVTTNFQTKSMSSMVSDTSCTFPSGDGIFWKHWIQTKDGQCGSPLTSTRDGFIVGIHSASNFTNTNNYFTSVPKNFMELLTNQEAQQWVSGWRLNADSVLWGGHKVFMVKPEEPFQPVKEATQL [V157T] | 0.0613 |  | 
MGESLFKGPRDYNPISSSICHLTNESDGHTTSLYGIGFGPFIITNKHLFRRNNGTLVVQSLHGVFKVKDTTTLQQHLVDGRDMIIIRMPKDFPPFPQKLKFREPQREERICLVTTNFQKKSMSSMVSDTSCTFPSGDGIFWKHWIQTKDGQCGSPLVSTRDGFIVGIHSASNFTNTNNYFTSVPKNFMELLTNQEAQQWVSGWRLNADSVLWGGHKVFMVKPEEPFQPVKEATQL [T119K] | 0.068 | 0.0641 | 
